Hit rate of the full screen: of about 44,000 compounds, about 340 (0.77%) were called active. Inconclusive results (about 5%) are left out. The call rests on the fitted dose curve; in most records, active means well fitted inhibition curve with a large enough effect; inconclusive means small, poorly fitted or top-dose-only effect; inactive means flat fitted curve, though single readings scatter. Some of the results follow.
assay: Acumen qHTS Assay for Inhibitors of the mTORC1 Signaling Pathway in MEF (Tsc2-/-, p53-/-) Cells: Sytravon; conditions: phospho-rpS6 immunofluorescence/PI, 24 h; series mostly up to 38.3 µM; activity change, negative = inhibition: at the top concentration; further: nearly all actives have a fitted effect of over 50% in size;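 on activity change, negative = inhibition: plate controls were DMSO for no effect and rapamycin for full effect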
Outline: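 Tsc2-/-, p53-/- mouse embryonic fibroblasts (empty-vector line) exposed to compound 24 hrs at 37 C, fixed, immunostained for phospho-rpS6 and counterstained with propidium iodide. Acumen laser scanning gives % positive cells from Alexa 488/PI ratio, thresholded using 7.5 nM rapamycin; PI count gives viability.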
Potency means the concentration at half of the fitted maximal effect.

| SMILES | activity change, negative = inhibition | Potency |
| --- | --- | --- |
| COc1ccc(C2=NC(c3ccncc3)=Nc3ccc(Br)cc3N2)cc1 | inactive: 3.01% | – |
| CCOC(=O)C1=C(CN2CCCCC2)NC(=O)NC1c1cc(C)ccc1C (stereo not given) | inactive: 3.67% | – |
| CCn1cc(C(=O)N2CCN(c3ccc(F)cc3)CC2)c(=O)c2cc(S(=O)(=O)N(C)C3CCCCC3)ccc21 | inactive: -8.16% | – |
| CCc1cccc(NC(=O)C2CCCN(S(=O)(=O)c3cccs3)C2)c1 (stereo not given) | inactive: -21.2% | – |
| CC(C)(C)c1ccc(OCCn2cc(C(=O)c3ccco3)c3ccccc32)cc1 | inactive: 0.533% | – |
| COc1ccccc1N1CCN(C(CNC(=O)C(=O)NCc2ccc(C)cc2)c2cccnc2)CC1 (stereo not given) | inactive: -0.496% | – |
| Cc1cccc(-c2nc3c(c(SCc4ccccc4Cl)n2)Cc2c(CO)cnc(C)c2O3)c1 | inactive: 5.16% | – |
| COc1cc(Cl)c(C)cc1NC(=O)c1cc2c(Cl)nc3ccc(C)cc3c2s1 | inactive: 0.31% | – |
| CCOc1ccccc1NC(=O)c1c(NC(=O)C(C)Oc2ccc(Cl)cc2)sc2c1CCCCC2 (stereo not given) | inactive: -9% | – |
| Cc1ccc(NS(=O)(=O)c2ccc3c(c2)CC(C)N3C(=O)C2CCC2)cc1Cl (stereo not given) | inactive: -0.173% | – |
| CC(C)CC1N=C2c3ccccc3N=C(SCC(=O)NCCc3ccc(Cl)cc3)N2C1=O (stereo not given) | inactive: 0.72% | – |
| CNC(=O)CN1C(=O)c2cccnc2Sc2ccccc21 | inactive: 3.84% | – |
| CCNC(=O)c1cnc2c(-c3ccccc3)c(C)nn2c1C | inactive: -0.224% | – |
| CC(C)CCn1c(=O)c2sccc2n2c(CCCC(=O)NC(C)C)nnc12 | inactive: 0.438% | – |
| COc1ccc(-c2nc3cc(C)ccn3c2NC(=O)c2ccc(C)c(C)c2)cc1 | inactive: 2.71% | – |
| COc1ccc(-n2c(=O)c3c4c(sc3n(Cc3ccccc3Cl)c2=O)CCC4)c(OC)c1 | inactive: -2.44% | – |
| COc1cccc(CNC(=O)CN(C)S(=O)(=O)c2ccc3[nH]c4c(c3c2)CCCC4)c1 | inactive: -3.87% | – |
| CCOc1ccccc1CNC(=O)C1CCCN(c2ncnc3onc(-c4ccc(F)cc4)c23)C1 (stereo not given) | inactive: -0.675% | – |
| CCCCOc1ccc(CN2C(=O)C(=O)c3cc(Br)cc(C)c32)cc1OC | – | active: 9.27 µM |
| Cc1cccc(C)c1-n1ncc(C(=O)Nc2ccc3c(c2)OCO3)c1C1CCN(C(=O)OC(C)(C)C)CC1 | inactive: -13% | – |
| COc1cccc(-c2cc(C(F)(F)F)nc(NCCc3ccccc3)n2)c1 | inactive: 1.5% | – |
| Cc1ccc(CN2CCc3nc(N4CCN(c5ccccc5F)CC4)ncc3C2)cc1C | inactive: 9.2% | – |
| COc1ccccc1CCNC(=O)c1ccc2c(c1)c(C)c(C)n2Cc1ccc(Cl)cc1 | inactive: -0.767% | – |
| O=C(NCc1ccccc1Cl)C1CCCN(C(=O)c2cnn(-c3ccccc3)c2-n2cccc2)C1 (stereo not given) | inactive: 1.31% | – |

| SMILES | activity change, negative = inhibition | Potency |
| --- | --- | --- |
| Cc1ccc2c(c1)-c1nc(-c3ccc4c(c3)NC(=O)CO4)cc(-c3ccc(F)cc3)c1CO2 | inactive: 1.45% | – |
| O=C(CSc1nnc(-c2ccc(O)cc2)o1)c1ccc(Br)cc1 | inactive: -1.57% | – |
| COc1ccccc1C(=O)Nc1c(C(=O)N(C)Cc2ccccc2)sc2nc(C)c(Cl)c(C)c12 | inactive: 1.57% | – |
| Cc1ccccc1-c1nnc(CN2CCN(c3ccccn3)CC2)o1 | inactive: -2.39% | – |
| COc1ccc(-c2noc(-c3ccc(N4CCN(C)CC4)c([N+](=O)[O-])c3)n2)cc1OC | inactive: -1.56% | – |
| CCOC(=O)c1ccc(NC(=O)N2CCOc3ccccc32)cc1 | inactive: 4.59% | – |
| COCCCNC(=O)C(=O)Nc1c2c(nn1-c1cccc(Cl)c1)CSC2 | inactive: -4.77% | – |
| CNC(=O)Cn1cc(S(=O)(=O)Cc2ccccc2F)c2ccccc21 | inactive: 4.48% | – |
| COC(=O)c1c(-c2cccs2)csc1NC(=O)COc1c(C)ccc(C)c1C | inactive: 1.16% | – |
| CCOc1ccc(CCNC(=O)c2cnc3sc(N4CCC(C)CC4)nn3c2=O)cc1 | inactive: 5.05% | – |
| COc1ccc(-c2oc3ncn4nc(COc5c(C)cccc5C)nc4c3c2-c2ccc(OC)cc2)cc1 | inactive: -8.29% | – |
| Cc1nn(C(=O)c2ccccc2F)c(C)c1S(=O)(=O)N1CCCCCC1 | inactive: -2.76% | – |
| CCCCCSc1nc2sc3c(c2c(=O)n1-c1ccccc1)CCN(C(C)=O)C3 | inactive: -1.73% | – |
| CCOc1ccccc1NC(=O)N1CCc2cc(S(=O)(=O)N3CCC(C)CC3)ccc21 | inactive: -3.09% | – |
| Cc1ccc(Cn2c(SCc3ccc(C(=O)N4CCCCCC4)cc3)nc3ccncc32)cc1 | inactive: 1.08% | – |
| Cc1cccc(NC(=O)c2sc(-n3nc(C)c(Cc4ccc5c(c4)OCO5)c3C)nc2C)c1C | inactive: -5.61% | – |
| COc1cccc(NC(=O)N2CCN3CCCCC3C2)c1 (stereo not given) | inactive: -2.45% | – |
| CCCOC(=O)CSc1ncnc2sc3c(c12)CCC(C)C3 (stereo not given) | inactive: -29.1% | – |
| COc1ccc(-c2cc(C)no2)cc1S(=O)(=O)NC(C)C | inactive: 2.32% | – |
| COc1ccc(CN2CCc3nc(SCC(=O)Nc4cc(C)cc(C)c4)[nH]c(=O)c3C2)cc1 | inactive: -9.37% | – |
| COc1ccc(-c2noc(Cn3c(=O)c4ccccc4n(CC(=O)Nc4cccc(OC)c4)c3=O)n2)cc1 | inactive: -7.61% | – |
| COc1cc(OC)cc(N2C(=O)N(CC(=O)c3ccc(F)cc3)c3ccccc3S2(=O)=O)c1 | inactive: 1.32% | – |
| COc1ccc(-c2noc(CSc3nnc(C)n3-c3ccc(OC)cc3)n2)cc1 | inactive: -3.29% | – |
| COc1ccccc1NC(=O)c1sc2nc(N3CCOCC3)c3c(c2c1N)CC(C)(C)OC3 | inactive: 6.2% | – |

| SMILES | activity change, negative = inhibition | Potency |
| --- | --- | --- |
| Cc1ccc(NC(=O)CSc2ncc3c(n2)-c2ccc(Cl)cc2N(C)S3(=O)=O)cc1F | inactive: -7.6% | – |
| CCOC(=O)c1ccc(NC(=O)c2oc(=O)c3ccccc3c2-c2ccccc2)cc1 | inactive: 0.0414% | – |
| CCCCOC(=O)c1ccc(NC(=O)Cn2nnc3sc4c(c3c2=O)CCCC4)cc1 | inactive: 2.53% | – |
| O=C(NCc1cccs1)c1ccc(Cn2c(SCc3cccc(F)c3)nc3cccnc32)cc1 | inactive: -7.57% | – |
| CCC(=O)N1CCc2cc(S(=O)(=O)CCC(=O)NCc3ccc(C)cc3)ccc21 | inactive: 0.636% | – |
| COc1ccccc1-c1nc2c(c(SCC(=O)Nc3c(C)cc(C)cc3C)n1)Cc1c(CO)cnc(C)c1O2 | inactive: -2.5% | – |
| CCc1cccc(NC(=O)C(Cc2ccccc2)NS(=O)(=O)c2ccc3c(c2)oc(=O)n3C)c1 (stereo not given) | inactive: -11.9% | – |
| CCOC(=O)c1c(NC(=O)c2cc3nc(-c4ccc(OC)cc4)cc(C(F)(F)F)n3n2)sc2c1CCC(C)C2 (stereo not given) | inactive: -1.14% | – |
| Cc1ccc(N2C(=O)N(CC(=O)C(C)(C)C)c3ccccc3S2(=O)=O)cc1C | inactive: -0.749% | – |
| CCc1cccc(NC(=O)c2cc3c(=O)n(Cc4ccc(OC)cc4)ccc3nc2C)c1 | inactive: -9.71% | – |
| CCCSc1nnc2c(n1)OC(c1sccc1C)Nc1ccccc1-2 (stereo not given) | inactive: 3.02% | – |
| CCOc1ccc(-c2cc(C(=O)N3CCN(S(=O)(=O)c4cc(Cl)ccc4OC)CC3)[nH]n2)cc1 | inactive: 0% | – |
| Cc1cc2oc(C(=O)N(Cc3ccccc3F)C3CCS(=O)(=O)C3)c(C)c2cc1Cl (stereo not given) | inactive: -16.5% | – |
| Cc1ccc(C)c(N2CCN(C(=O)Cn3ncc4ccsc4c3=O)CC2)c1 | inactive: -3.34% | – |
| CCOC(=O)c1ccc(NC(=O)c2c(N3CCCC3=O)c3cc(OC)ccc3n2C)cc1 | inactive: -5.07% | – |
| Cc1c(Cl)cccc1NC(=O)CN1C(=O)COc2ccc(S(=O)(=O)N3CCOCC3)cc21 | inactive: 1.01% | – |
| CC1=C(C(=O)OCC2CCCCC2)C(c2cccc(Cl)c2Cl)CC(=O)N1 (stereo not given) | inactive: -12.2% | – |
| CCc1ccc(Cn2c(CNS(=O)(=O)c3ccc(F)c(Cl)c3)nc3cccnc32)cc1 | inactive: 0.326% | – |
| CCOc1ccc(C(=O)c2oc3ccccc3c2NC(=O)Cc2coc3cc(C)cc(C)c23)cc1 | inactive: -0.255% | – |
| CC(=O)N1CCCC1c1nc2ccccc2n1Cc1ccccc1 (stereo not given) | inactive: -0.0989% | – |
| COc1ccccc1N1CCN(S(=O)(=O)CCNC(=O)COc2ccccc2F)CC1 | inactive: -9.89% | – |
| Cc1ccc(CNc2ncccc2-c2nc(-c3ccc(Cl)cc3)no2)cc1 | inactive: 0.149% | – |
| O=C(CCCn1c(=O)c2sccc2n(Cc2ccc(Cl)cc2)c1=O)NCc1ccc2c(c1)OCO2 | inactive: -14.7% | – |
| COc1ccc(Br)cc1CNC(=O)CCc1cn(Cc2ccc(C)cc2)c2ccccc12 | inactive: -17.8% | – |

| SMILES | activity change, negative = inhibition | Potency |
| --- | --- | --- |
| CCOC(=O)c1ccccc1NC(=O)c1cc2c(s1)-c1ccccc1SC2 | inactive: 0.624% | – |
| CC1=C(c2ccc(Cl)cc2)S(=O)(=O)N=C1N1CCC(C(=O)NCCc2ccco2)CC1 | inactive: -1.4% | – |
| COC(=O)c1sccc1S(=O)(=O)N1CCN(c2ccc(Cl)cc2)CC1 | inactive: -8.83% | – |
| Cc1scc(CN2CCN(c3ccc(F)cc3)CC2)c1C | inactive: -11.6% | – |
| CC(C)c1ccc(NC(=O)CN2C(=O)CSc3ccc(S(=O)(=O)N4CCCC4)cc32)cc1 | inactive: 0.126% | – |
| Cc1ccc(-c2nc(S(=O)(=O)c3ccccc3)c(SCC(=O)NC3CCCCC3)o2)cc1 | inactive: 8.02% | – |
| CC(C)CC(NC(=O)C1CCCCC1)C(=O)Nc1cccc(C(F)(F)F)c1 (stereo not given) | inactive: -1.46% | – |
| Cc1ccc(Cl)cc1N1CCN(C(=O)c2nn(C)c3c2CS(=O)(=O)c2ccccc2-3)CC1 | inactive: 6.74% | – |
| Cc1ccc(Cl)cc1NC(=O)c1cc(CN2CCCC2)on1 | inactive: -0.18% | – |
| Cc1cccc(N2CCN(C(=O)c3cccn3-c3nnc(N4CCCCC4)s3)CC2)c1C | inactive: -8.31% | – |
| CCc1ccc(NC(=O)c2ccc(NS(=O)(=O)c3c(C)noc3C)cc2)cc1 | inactive: -3.46% | – |
| CCc1cccc(C)c1NC(=O)c1cc(S(=O)(=O)N2CCCCCC2)cn1C | inactive: 0.323% | – |
| COc1ccc(-c2cc(C(F)(F)F)nc(SCCC(=O)Nc3cccc(OC)c3)n2)cc1 | inactive: -10.3% | – |
| O=C(NC1CC1)c1ccc(Cn2c(SCc3ccc(F)cc3)nc3cccnc32)cc1 | inactive: 0% | – |
| O=C(COc1ccc(F)cc1)Nc1ccc(S(=O)(=O)N(Cc2ccccc2)c2ccccc2)cc1 | inactive: -3.83% | – |
| CCc1ccc(CNC(=O)c2sc3nc[nH]c(=O)c3c2C)cc1 | inactive: -0.181% | – |
| CCCNc1ncnc2c1c(-c1ccccc1)cn2-c1ccc(OCC)cc1 | inactive: 1.97% | – |
| COc1ccc(NC(=O)CCn2c(-c3ccc(F)cc3)cc(C(C)=O)c2C)c(OC)c1 | inactive: -4.34% | – |
| O=c1cc(CSc2ccccc2)[nH]c2ccc(F)cc12 | inactive: -12.2% | – |
| COc1ccc(-c2cc(C(C)=O)c(C)n2CCC(=O)Nc2ccc(C)c(Cl)c2)cc1 | inactive: 0.654% | – |
| CCCOc1ccc(C(=O)Nc2ccc(-c3cc4ccccc4oc3=O)c(C)c2)cc1 | inactive: -5.03% | – |
| CCc1ccc(Nc2nnc(-c3cc4cc(OC)ccc4oc3=O)s2)cc1 | inactive: -0.264% | – |
| COc1ccc(OC)c(CNc2ncnc3c2nc2n3CCCC2)c1 | inactive: 2.04% | – |
